# From PubChem BioAssay AID2675 (National Center for Advancing Translational Sciences (NCATS), 2010)
# About 100 (0.036%) of roughly 280,000 compounds were called active. Inconclusive results, whose numbers are uncertain, are shown with a selection of clear calls. The call rests on the fitted dose curve; in most records, active means well fitted inhibition curve with a large enough effect in the signal ratio, with a control signal flat (not every such curve was filed as active); inconclusive means small, poorly fitted or top-dose-only effect, or effect the other way, or a change in a side signal; inactive means no such curve, though single readings can be large or run the other way; the % refers to the signal ratio. Potencies beside an inconclusive call are fits to weak or partial responses and may not hold up. “Side channel” marks fits to a control or component signal instead of the main read-out.
# Molecular target: Muscleblind-like protein 1 (Homo sapiens) (UniProt Q9NR56)
# Assay: qHTS Assay for Inhibitors of MBNL1-poly(CUG) RNA binding
# Details: TR-FRET MBNL1-His/biotin-(CUG)12 binding, 665/545 ratio; series mostly up to 57.5 µM
# Method in brief: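 Compound titration spanned 92 nM–58 uM against the MBNL1-His/biotin-(CUG)12 complex. After 60 min at room temperature with 5 nM streptavidin-XL665 and 0.055 ng/ul terbium anti-His, ratiometric 665/545 nm emission (Ex 340 nm) normalized to controls.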
# Potency means the concentration at half of the fitted maximal effect; tags describe the fitted curve by direction and shape or compound fluorescence and quenching.
# Sequence of UniProt Q9NR56 (Q9NR56 whole entry, looked up): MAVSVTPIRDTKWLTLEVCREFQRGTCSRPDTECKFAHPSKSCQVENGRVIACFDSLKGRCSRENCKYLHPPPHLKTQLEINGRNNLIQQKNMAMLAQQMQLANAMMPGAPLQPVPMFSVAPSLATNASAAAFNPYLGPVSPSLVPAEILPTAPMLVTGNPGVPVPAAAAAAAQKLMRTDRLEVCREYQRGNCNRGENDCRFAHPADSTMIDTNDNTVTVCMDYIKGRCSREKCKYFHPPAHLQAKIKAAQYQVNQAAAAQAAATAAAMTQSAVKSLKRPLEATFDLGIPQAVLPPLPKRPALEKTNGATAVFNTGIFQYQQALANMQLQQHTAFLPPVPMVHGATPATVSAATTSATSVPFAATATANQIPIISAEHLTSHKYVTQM
row,Structure (SMILES),Potency
1,O=[N+]([O-])c1nn(-c2ccc3c(c2)OCCO3)n(O)c1=NC1CCCCC1,"inconclusive: 14.1 µM [quencher, partial curve]"
2,CC(C)(C)n1nnnc1C(c1ccc(Cl)cc1)N(Cc1cccnc1)Cc1ccco1 (stereo unspecified),inactive
3,CC(=O)Nc1ccc(-c2cn3cccnc3n2)cc1,"inconclusive: 20 µM [quencher, side channel, partial curve]"
4,Nc1cc(N)nc(SCC(=O)N2CCN(S(=O)(=O)c3ccccc3)CC2)n1,inactive
5,Oc1ccc(N=Nc2ccccc2)o1,inactive
6,Cn1c(-c2ccc(N)cc2)nc2ccccc21,inactive
7,O=C1C(Cl)=C(NC(=O)c2ccccc2)C(=O)C(Cl)=C1NC(=O)c1ccccc1,inactive
8,CC(=O)c1ccc(N2CCN(c3ccc(S(=O)(=O)NCCCN(C)C)cc3[N+](=O)[O-])CC2)cc1,"inconclusive: 12.6 µM [quencher, side channel, partial curve]"
9,COC(=O)c1ccc(CSc2nnc(-c3ccncc3)o2)o1,"inconclusive: 50.1 µM [inhibitor, partial curve]"
10,CCOc1c(/C=C(\C#N)C(N)=O)c2ccccc2n1CC,"inconclusive: 44.7 µM [quencher, side channel, single point]"
11,Oc1c(Cl)cc(Cl)cc1/C=N/NC(=S)NC1CC2C=CC1C2 (stereo unspecified),inactive
12,Cc1csc(SCC(=O)c2cc(C)n(Cc3cccs3)c2C)n1,inactive
13,C#CCOc1c(Cl)cc(/C=C2/C(=O)ON=C2C)cc1OCC,inactive
14,c1ccc(C2=NNC(c3ccccn3)=NN2)nc1,inactive
15,CC1CCC/C(=N/Nc2ccc([N+](=O)[O-])cc2[N+](=O)[O-])C1 (stereo unspecified),"inconclusive: 6.31 µM [quencher, side channel, partial curve]"
16,CN1C(=O)c2cccc3c(S(=O)(=O)Nc4ccc(O)c(C(=O)O)c4)ccc1c23,"inconclusive: 31.6 µM [quencher, side channel, single point]"
17,O=C(Nc1ccc(F)cc1)c1nc(S(=O)(=O)Cc2ccccc2)ncc1Cl,inactive
18,CC(NS(=O)(=O)c1ccc([N+](=O)[O-])cc1)C(c1cccs1)N1CCOCC1 (stereo unspecified),"inconclusive: 17.8 µM [quencher, side channel, partial curve]"
19,c1ccc(CNCC2COc3ccccc3O2)cc1 (stereo unspecified),"inconclusive: 4.47 µM [quencher, side channel, full curve]"
20,CNC(=O)c1c(Cl)cnn1-c1ccccc1,"inconclusive: 39.8 µM [quencher, side channel, single point]"
21,O=C(c1ccccc1)c1nnc(-c2ccccc2F)o1,"inconclusive: 14.1 µM [quencher, side channel, partial curve]"
22,CCOC(=O)C1C(=O)N(O)CC1c1cccc(Oc2ccccc2)c1 (stereo unspecified),inactive

row,Structure (SMILES),Potency
1,CCn1c(=S)sc2c(=O)[nH]c(C)nc21,"inconclusive: 79.4 µM [inhibitor, partial curve]"
2,O=C(CCS(=O)(=O)c1cccc2nonc12)NCc1ccc(Cl)cc1,"inconclusive: 14.1 µM [quencher, side channel, partial curve]"
3,Cc1ccc(S(=O)(=O)[N-]c2nc3ccccc3nc2-n2cc[n+](CCC(C)C)c2)cc1,"inconclusive: 7.94 µM [quencher, side channel, partial curve]"
4,Cn1c2c(c(=O)n3ncnc13)CCCC2,inactive
5,O=C(Nc1ccccc1)C1CC(O)CN1S(=O)(=O)c1ccc([N+](=O)[O-])cc1 (stereo unspecified),"inconclusive: 25.1 µM [quencher, side channel, partial curve]"
6,O=C(CC1C(=O)NC2CCCCC2N1C(=O)c1ccc([N+](=O)[O-])cc1)Nc1ccccc1 (stereo unspecified),"inconclusive: 15.8 µM [quencher, partial curve]"
7,CCOc1ccc(N/N=C(/C#N)C(N)=O)cc1,"inconclusive: 15.8 µM [quencher, side channel, partial curve]"
8,Cc1cc(NC(=O)CSc2nc3ccsc3c(=O)n2CCCCC(=O)O)no1,inactive
9,CCc1ccc(/C=C2\SC(N3CCOCC3)=NC2=O)cc1,"inconclusive: 25.1 µM [quencher, side channel, single point]"
10,O=C(CN1CCN(Cc2ccc(Cl)cc2)CC1)N/N=C/C=C/c1ccccc1[N+](=O)[O-],"inconclusive: 15.8 µM [quencher, side channel, partial curve]"
11,Cc1cc(C(=O)NCC(=O)OCC(=O)N(C)C2CCCCC2)ccc1[N+](=O)[O-],"inconclusive: 39.8 µM [quencher, single point]"
12,NC(=O)c1c(NC(=O)C(=O)N2CCOCC2)sc2c1CCC2,"inconclusive: 14.1 µM [quencher, side channel, partial curve]"
13,COc1cc2c(cc1OC)-c1cc3ccc4c(c3c[n+]1CC2)OCO4,"inconclusive: 10 µM [quencher, side channel, partial curve]"
14,O=[N+]([O-])c1ccc(SCc2ccncc2)nc1,"inconclusive: 17.8 µM [quencher, side channel, partial curve]"
15,COC(=O)Cc1ccc2sc(-c3ccccc3)nc2c1,inactive
16,CCOc1ccc(/C=C2/SC(=O)NC2=S)cc1,"inconclusive: 0.891 µM [quencher, side channel, full curve, poor fit]"
17,Cc1csc(NC(=O)c2cc(=O)[nH]c3ccc(S(=O)(=O)N4CCOCC4)cc23)n1,inactive
18,Cc1cc(NC(=O)c2ccc3c(c2)C(=O)N(CC(C)C)C3=O)no1,"inconclusive: 2.82 µM [quencher, side channel, full curve, poor fit]"
19,CC/C(C)=N/Nc1nc(-c2cc3cccc(OC)c3oc2=O)cs1,"inconclusive: 28.2 µM [quencher, side channel, single point]"
20,CC1OC(Nc2ccc(N=Nc3ccccc3)cc2)C(O)C(O)C1O (stereo unspecified),"inconclusive: 25.1 µM [quencher, side channel, partial curve]"
21,CN(CC(=O)Nc1ccc(F)c(F)c1)S(=O)(=O)c1cccs1,inactive
22,O=C1c2cccc3c(N4CCCCC4)ccc(c23)C(=O)N1c1ccccn1,"inconclusive: 3.16 µM [quencher, side channel, full curve]"

row,Structure (SMILES),Potency
1,COCCNc1c2c(c(C#N)c3nc4ccccc4n13)CCCC2,"inconclusive: 11.2 µM [quencher, partial curve]"
2,C=CCn1c(=O)/c(=C\c2ccccn2)s/c1=C(/C#N)C(=O)NCC1CCCO1 (stereo unspecified),inactive
3,COCCCn1c(=O)/c(=C\c2cccc(OC)c2OC)s/c1=C(/C#N)C(=O)Nc1ccc(C(=O)O)cc1,"inconclusive: 3.55 µM [quencher, side channel, full curve]"
4,S=C(NCCc1ccccc1)N1CCN(C(c2ccccc2)c2ccccc2)CC1,"inconclusive: 3.55 µM [quencher, side channel, partial curve]"
5,CCOc1cccc2cc(C(=O)NCc3cccnc3)c(=O)oc12,"inconclusive: 1.78 µM [quencher, side channel, full curve]"
6,CN(CCO)c1cnccn1,inactive
7,Cc1cc(C)n2nc(SCc3cc(=O)oc4ccc5ccccc5c34)nc2n1,"inconclusive: 31.6 µM [quencher, single point]"
8,COc1ccc(N2CCc3c(C)nc4c(OC)cccc4c32)cc1,"inconclusive: 15.8 µM [quencher, side channel, partial curve]"
9,N#Cc1c(N2CCN(c3ccc(F)cc3)CC2)nc(N)c2c(N)nc3c(c12)CC(=O)N3C1CC1,inactive
10,COc1cccc(N2CCN(C(=O)c3ccc(=O)oc3)CC2C)c1 (stereo unspecified),"inconclusive: 22.4 µM [quencher, side channel, partial curve]"
11,CCOC(=O)[C@H](CCc1ccccc1)N[C@@H](C)C(=O)N1CCC[C@H]1C(=O)O,inactive
12,O=C(Nc1ccccc1)c1sc(N2CCOCC2)nc1-c1ccccc1,inactive
13,COCCCn1cnc2c(c1=O)c1nc3ccccc3nc1n2-c1ccc(C)cc1,"inconclusive: 2.82 µM [quencher, side channel, full curve]"
14,CCC1S/C(=N\S(=O)(=O)c2cccs2)N(C2CCCCC2)C1=O (stereo unspecified),inactive
15,Cc1cccc2nc(CSc3nc4[nH]ncc4c(=O)n3-c3ccccc3Cl)cc(=O)n12,"inconclusive: 14.1 µM [quencher, side channel, partial curve]"
16,c1ccc(-c2nc3ccccc3nc2-c2ccccn2)nc1,"inconclusive: 11.2 µM [quencher, partial curve]"
17,O=C(CCNc1ccc(F)c(Cl)c1)c1ccco1,inactive
18,COc1ccc(/C=N\Nc2ccc([N+](=O)[O-])cc2[N+](=O)[O-])c(C(=O)O)c1OC,"inconclusive: 6.31 µM [quencher, side channel, partial curve]"
19,Cc1ccc(NC(=O)c2sccc2-n2cccc2)c(C)c1,"inconclusive: 28.2 µM [quencher, side channel, single point]"
20,Cc1ccccc1NC(=O)CN(C)S(=O)(=O)c1ccc(-c2ccc(=O)[nH]n2)s1,"inconclusive: 7.08 µM [quencher, side channel, partial curve]"
21,CN(C)C=Nc1ccccc1C1C=NNC1=O (stereo unspecified),"inconclusive: 28.2 µM [quencher, side channel, single point]"
22,CC(=O)C1=C(C)NC2=C(C(=O)c3ccccc32)C1c1ccccc1 (stereo unspecified),"inconclusive: 14.1 µM [quencher, side channel, partial curve]"
